Screen size: about 310,000 compounds; about 14,000 (4.5%) showed an effect of 50% or more. Effects have a minus sign here. Some of the results follow.
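Further: peak tail current of the secondary pulse compared with the same well before compound.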

The target in the test is human ether-à-go-go-related gene (hERG) potassium channel (human, UniProt Q12809). Briefly: primary screen, population patch clamp on CHO cells stably expressing hERG.
Chain of human ether-à-go-go-related gene (hERG) potassium channel (Q12809 whole entry, looked up): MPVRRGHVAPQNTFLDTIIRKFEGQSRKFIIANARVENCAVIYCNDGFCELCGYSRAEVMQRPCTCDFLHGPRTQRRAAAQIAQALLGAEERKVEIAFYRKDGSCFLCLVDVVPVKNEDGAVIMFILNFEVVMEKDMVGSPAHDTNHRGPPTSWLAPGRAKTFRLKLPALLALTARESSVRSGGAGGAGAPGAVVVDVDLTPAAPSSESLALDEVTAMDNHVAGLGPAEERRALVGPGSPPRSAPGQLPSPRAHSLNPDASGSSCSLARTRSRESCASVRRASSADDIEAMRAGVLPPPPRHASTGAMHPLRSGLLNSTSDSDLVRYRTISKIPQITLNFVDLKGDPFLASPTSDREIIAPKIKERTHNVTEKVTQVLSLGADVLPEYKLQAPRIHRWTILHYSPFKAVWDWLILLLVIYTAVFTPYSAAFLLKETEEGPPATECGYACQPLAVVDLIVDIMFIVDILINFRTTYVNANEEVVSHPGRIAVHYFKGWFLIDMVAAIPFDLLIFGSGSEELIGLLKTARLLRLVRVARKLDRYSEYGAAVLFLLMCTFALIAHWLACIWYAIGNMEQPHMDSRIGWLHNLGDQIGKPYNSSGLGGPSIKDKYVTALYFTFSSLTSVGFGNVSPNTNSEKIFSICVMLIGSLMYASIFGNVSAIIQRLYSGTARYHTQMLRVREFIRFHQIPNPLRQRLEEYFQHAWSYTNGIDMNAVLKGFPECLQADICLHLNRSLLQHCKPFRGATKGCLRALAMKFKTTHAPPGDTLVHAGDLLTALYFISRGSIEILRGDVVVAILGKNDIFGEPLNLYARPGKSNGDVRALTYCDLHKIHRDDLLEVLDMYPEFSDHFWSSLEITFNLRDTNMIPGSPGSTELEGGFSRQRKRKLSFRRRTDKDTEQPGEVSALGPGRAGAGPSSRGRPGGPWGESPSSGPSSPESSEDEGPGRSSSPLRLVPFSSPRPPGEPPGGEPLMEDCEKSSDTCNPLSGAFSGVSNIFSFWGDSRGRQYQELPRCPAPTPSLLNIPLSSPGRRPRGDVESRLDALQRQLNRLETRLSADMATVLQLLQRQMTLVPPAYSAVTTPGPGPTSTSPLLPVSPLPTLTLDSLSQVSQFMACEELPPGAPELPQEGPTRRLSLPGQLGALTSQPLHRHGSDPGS
Consider `CCOC(=O)c1cnc(/N=C/N(C)C)s1`, for which the “hERG current change (%, negative = inhibition) at 10uM” value is 11.9%.
For the compound `Cc1ccc(NC(=O)c2cc(-c3ccco3)nc3ccccc23)cc1S(=O)(=O)N1CCOCC1`, the “hERG current change (%, negative = inhibition) at 10uM” value is 10.9%.
As to `CC1CC(C)CN(S(=O)(=O)c2ccc3c(c2)CCN3C(=O)C2CC2)C1` (centres unmarked), the “hERG current change (%, negative = inhibition) at 10uM” value is recorded as 3.08%.
For the compound `O=C(COC(=O)C1CCN(c2ccc(C(F)(F)F)cn2)CC1)Nc1ccc(F)cc1[N+](=O)[O-]`, the “hERG current change (%, negative = inhibition) at 10uM” value worked out at 13%.
As to `COc1ccc2cnnc(SCC(=O)Nc3ccccc3)c2c1OC`, the “hERG current change (%, negative = inhibition) at 10uM” value is -19.7%.
`O=C(Nc1ccc(Cl)c(Cl)c1)c1ccco1`: the “hERG current change (%, negative = inhibition) at 10uM” value is listed as 3.48%.
On to `O=C(O)CN(Cc1ccccc1)S(=O)(=O)c1ccc(F)cc1`, for which the “hERG current change (%, negative = inhibition) at 10uM” value stood at 2.09%.
Turning to `On1c(-c2ccccc2Cl)nc2ncccc21`, the “hERG current change (%, negative = inhibition) at 10uM” value is 17.4%.
For `COc1ccc(-c2nc3cnccn3c2NCc2ccccc2)cc1SC1CCCCC1.O=C(O)C(F)(F)F`, the “hERG current change (%, negative = inhibition) at 10uM” value is on record as 2.68%.
Then `O=C1CSCC(=O)N1c1ncc(C(F)(F)F)cc1Cl`, with 10.7%; and `O=C(NCCNc1ccc([N+](=O)[O-])cc1C(F)(F)F)c1ccc(F)cc1`, with -14.1%; and `Cc1ccc(C(=O)NC2CC(C)(C)NC(C)(C)C2)c(C)c1`, with 5.08%.
Then `Cc1ccc(SCc2noc(-c3c(C)noc3C)n2)cc1`, with -22.2%; and `Cc1c(C)n(C)c2ccc(C(=O)NCCCN3CCN(c4ccc(F)cc4)CC3)cc12`, with -66.6%; and `CC1CCCCN1CCNC(=O)C1CCN(S(=O)(=O)N2CCCCC2)CC1` (centres unmarked), with 2.23%.
Then `O=C(/C=C/c1ccccc1Cl)c1ccc(O)cc1`, with 21.3%.
Take `CCC(=O)Nc1cccc(NC(=O)c2ccccc2Br)c1`: the “hERG current change (%, negative = inhibition) at 10uM” value worked out at 2.27%.
Consider `CCOc1ccc(NC(=O)C2CC(=O)NC(N3CCc4ccccc43)=N2)cc1` (centres unmarked), for which the “hERG current change (%, negative = inhibition) at 10uM” value turned out to be 6.43%.
For the compound `CCCC(=O)Nc1ccc(NC(=O)c2ccccc2Cl)nc1`, the “hERG current change (%, negative = inhibition) at 10uM” value is given as 1.02%.
Then `O=C(CSc1nccn1Cc1ccco1)Nc1ccccc1`, with 4.6%; and `Cc1cc(Nc2cccc(Cl)c2Cl)n2ncnc2n1`, with 1.85%.
In the case of `Cc1ccc(-c2csc(NC(=O)C3CSC4(C)CCC(=O)N34)n2)cc1` (centres unmarked), the “hERG current change (%, negative = inhibition) at 10uM” value was found to be 32.3%.
Then `COc1ccc(N2C(=NC(=O)C3CCCO3)SC3CS(=O)(=O)CC32)cc1` (centres unmarked), with 5.78%; and `CCOc1ccc(-n2c(=S)sc3c(=O)n(-c4ccccc4)c(SC)nc32)cc1`, with 27%.
Take `COc1ccc(CCNC(=O)CSc2nc3c(c(=O)n(C)c(=O)n3C)n2C)cc1OC`: the “hERG current change (%, negative = inhibition) at 10uM” value came out at 4.6%.
For `CC(=O)c1c(C)[nH]c(C(=O)NCc2ccc(F)cc2)c1C`, the “hERG current change (%, negative = inhibition) at 10uM” value amounted to 7.05%.
In the case of `COc1ccc(S(=O)(=O)n2[nH]c(=O)c(CCO)c2C)cc1`, the “hERG current change (%, negative = inhibition) at 10uM” value is reported as 14.8%.
Consider `Cc1cc(C)nc(SCc2ccc(C(=O)N/N=C/c3ccco3)cc2)n1`, for which the “hERG current change (%, negative = inhibition) at 10uM” value is reported as -25.7%.
Turning to `C=CCn1c(SCc2ccccc2)nnc1-c1cccnc1`, the “hERG current change (%, negative = inhibition) at 10uM” value was -20.5%.
Take `Cc1ccccc1N1CC(C(=O)N2CC(C)CC(C)C2)CC1=O` (centres unmarked): the “hERG current change (%, negative = inhibition) at 10uM” value was determined as 5.36%.
Consider `CC(NC(N)=O)C(=O)OCc1ccc(Cl)cc1Cl` (centres unmarked), for which the “hERG current change (%, negative = inhibition) at 10uM” value is on record as 16.7%.
In the case of `Cc1cc(N)ccc1NC(=O)CN1CCOCC1`, the “hERG current change (%, negative = inhibition) at 10uM” value is 15.8%.
As for `COc1ccc(CCNC(=O)c2c(O)c3ccccc3[nH]c2=O)cc1OC`, the “hERG current change (%, negative = inhibition) at 10uM” value was 21.3%.
Then `COc1cccc(CN(C)C(=O)CNC(=O)c2cccs2)c1OC`, with 0.319%.
As for `COc1ccc(-n2nc(C(=O)NCc3ccco3)c3ccccc3c2=O)cc1`, the “hERG current change (%, negative = inhibition) at 10uM” value is listed as -17.1%.
With `COC(=O)c1cc(Cl)c(NC(=O)c2cc(OC)c(OC)c(OC)c2)cc1OC`, the “hERG current change (%, negative = inhibition) at 10uM” value was 12.2%.
For the compound `Cc1ccc(C(=O)Nc2ccc(NC(=O)c3cccs3)cc2)cc1[N+](=O)[O-]`, the “hERG current change (%, negative = inhibition) at 10uM” value was determined as 17.5%.
Turning to `Cc1cc(C)cc(NC(=S)NC2CC3CCCC(C2)N3C2CCCC2)c1` (centres unmarked), the “hERG current change (%, negative = inhibition) at 10uM” value is given as -77.5%.
Consider `Cc1ccnn1CCC(=O)N1CCCC(CCC(=O)N2CCN(c3ccccn3)CC2)C1` (centres unmarked), for which the “hERG current change (%, negative = inhibition) at 10uM” value is on record as -48.2%.
Then `O=S(=O)(Nc1ccc(N2CCOCC2)nn1)c1ccccc1`, with 12.9%; and `COCCNC(=O)COC(=O)c1nsc(Cl)c1Cl`, with -5.23%; and `O=C(O)c1ccccc1NC(=O)C1CCCO1` (centres unmarked), with 13.5%.
On to `Cc1cccc(OCC(=O)Nc2ncn[nH]2)c1C`, for which the “hERG current change (%, negative = inhibition) at 10uM” value is on record as 0.301%.
Then `CCC(CC)C(=O)NCCc1ccc(OC)c(OC)c1`, with 11%; and `CCOc1ccccc1NC(=O)CCCNC(=O)Cn1cnc2sc(C)c(C)c2c1=O`, with 8.27%; and `COc1ccc(CCN2C(=O)C3CC(C)=C(C)CC3C2=O)cc1OC` (centres unmarked), with -8.87%.
With `CN(CC(=O)Nc1cccc(F)c1)C(=O)Cn1c(=O)oc2ccccc21`, the “hERG current change (%, negative = inhibition) at 10uM” value turned out to be 2.01%.
`CCOC(=O)c1[nH]c(C)c(CC(C)C)c1C`: the “hERG current change (%, negative = inhibition) at 10uM” value amounted to 13%.
As to `CCCCNC(=O)N1CCN(S(C)(=O)=O)CC1`, the “hERG current change (%, negative = inhibition) at 10uM” value was 13.4%.
Then `COc1ccc(CCC(C)NCc2ccc(Cl)c(Cl)c2)cc1` (centres unmarked), with -53.7%.
For the compound `Cc1nn(Cc2ccc(F)cc2)c(C)c1NC(=O)c1cnn2c1NC(c1cccs1)CC2C(F)(F)F` (centres unmarked), the “hERG current change (%, negative = inhibition) at 10uM” value was -7.32%.
Take `COc1ccc([C@@]2(C(C)C)ON(c3ccccc3C(F)(F)F)C2=O)cc1`: the “hERG current change (%, negative = inhibition) at 10uM” value turned out to be 17.4%.
Turning to `Cc1ccc(OCC(=O)N/N=C2/SCC(=O)N2Cc2ccco2)cc1`, the “hERG current change (%, negative = inhibition) at 10uM” value is listed as -28%.
In the case of `CC1CCN(C(=O)C2COc3ccccc3O2)CC1` (centres unmarked), the “hERG current change (%, negative = inhibition) at 10uM” value is -2.23%.
Take `COc1ccc(N(CC(=O)Nc2ccc(F)c(F)c2)S(=O)(=O)c2c(C)n[nH]c2C)cc1`: the “hERG current change (%, negative = inhibition) at 10uM” value came to 18.5%.
`COc1ccccc1N1CCN(c2ccc([N+](=O)[O-])cn2)CC1`: the “hERG current change (%, negative = inhibition) at 10uM” value is 0.823%.
Then `CC(=O)Nc1ccc(SCC(=O)c2c(N)n(Cc3ccccc3)c(=O)n(C)c2=O)cc1`, with 14%.
In the case of `COc1ccc(-c2nc3ccccc3s2)cc1O`, the “hERG current change (%, negative = inhibition) at 10uM” value is -0.405%.
As for `Cc1cc(=O)[nH]c(SCC(=O)Nc2ccccc2[N+](=O)[O-])n1`, the “hERG current change (%, negative = inhibition) at 10uM” value came out at 4.57%.

The record behind these values is PMC4336329 (PLoS ONE, 2015).
